Measurements reported in the supplement of paper PMC11417369.
± gives the standard deviation of the averaged measurements. Some of the results follow.

These sequences were tested on PfAP2-G AP2 domain (GST-tagged) (assay: gcPBM binding intensity (ln(normalized median fluorescence intensity)); higher = stronger DNA binding).
How it was run: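 Using an Agilent 4 × 180k array, primer-extended double-stranded 36-bp intergenic genomic probes and negative controls were exposed for 1 h to GST-fused P. falciparum DNA-binding domains expressed in E. coli. Binding was carried out in 1× PBS with 1% milk, 0.2 mg/ml BSA, 0.5% salmon testes DNA and 0.03% Triton X-100, and protein was detected with Alexa488 anti-GST antibody and a 488 nm scan. Binding intensity is the highest Masliner-normalised natural-log median intensity across replicate spots of either probe orientation.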
In the case of “AATGCAAAGGTGAAAGAACACACAAAAAAAAAAAAA [CACACA_site9333]”, the “gcPBM binding intensity (ln)” value is reported as 9.85 ± 0.4.
For “GTGTTAAATTTTTGAACATGCAAGTTTTATTATTGA [TGCATGCA_site478]”, the “gcPBM binding intensity (ln)” value was 9.78 ± 0.028.
With “TATTTAAAAAACACATGTACGAGTATTATATATAAA [XGTACX_site6654]” the “gcPBM binding intensity (ln)” value was 11.1 ± 0.65.
With “TATTGTATATAATAAACACACAATATTAAAAATATA [CACACA_site1057]” the “gcPBM binding intensity (ln)” value was 9.78 ± 0.12.
In the case of “GATTCATCTAAACACCGTACATATTATATATATATA [XGTACX_site6030]”, the “gcPBM binding intensity (ln)” value is reported as 10.7 ± 0.39.
With “AAACTCAACTTATATACACACAATCTTTTTTTTTTA [CACACA_site29]” the “gcPBM binding intensity (ln)” value was 9.905 ± 0.078.
With “CCCCTCGAAATAATTTGTACGAATATATTGTCTGTA [XGTACX_site8308]” the “gcPBM binding intensity (ln)” value was 11.6 ± 1.1.
For “TAATATACTTAATACACACACGAATATTTATAAATA [CACACA_site6675]”, the “gcPBM binding intensity (ln)” value was 10.3 ± 0.3.
With “GTTCATAAATTAAACACACACACACCGCTGGATACC [CACACA_site5779]” the “gcPBM binding intensity (ln)” value was 10.5 ± 0.31.
For “AGTATATTAAAAAATACACACGTATTATATCTACAT [CACACA_site8844]”, the “gcPBM binding intensity (ln)” value was 10.11 ± 0.028.
With “TAAAAAAAAAACATCTGTACCAATTTTTATGTATAA [XGTACX_site5196]” the “gcPBM binding intensity (ln)” value was 10.8 ± 0.4.
With “AATAAAAGTTCACCTGTACACACATATATATATGTA [CACACA_site8500]” the “gcPBM binding intensity (ln)” value was 11.3 ± 0.76.
“ATGTATTTATATACTTGTACGTAAGATGTATTATAT [XGTACX_site908]” was tested, and the “gcPBM binding intensity (ln)” value was 11.5 ± 1.1.
In the case of “ATATTAAAATACAGTGCATGTTAAAAATATATTATA [TGCATGCA_site977]”, the “gcPBM binding intensity (ln)” value is reported as 10.1 ± 0.2.
In the case of “TTATAACATCTTAAATGTACAAATATGTGCTTATTT [XGTACX_site7285]”, the “gcPBM binding intensity (ln)” value is reported as 10.7 ± 0.55.
“AATAATAATAGAAACACACACACATCTTTAATAATA [CACACA_site4805]” was tested, and the “gcPBM binding intensity (ln)” value was 9.995 ± 0.049.
In the case of “ATATTTTTTTTCTACACACATACAAATATATATTAT [CACACA_site2359]”, the “gcPBM binding intensity (ln)” value is reported as 10.12 ± 0.085.
In the case of “ATTGGAAAATATGTTATATATATATATATATATATG [CACACA_negctrl_site116]”, the “gcPBM binding intensity (ln)” value is reported as 9.73 ± 0.11.
With “TTAATTCGTACATACACACGCACATATATATATATA [CACACA_site1469]” the “gcPBM binding intensity (ln)” value was 11.3 ± 0.74.
With “AATAACTTTTTAAACACACACACATATAAATAAATA [CACACA_site6196]” the “gcPBM binding intensity (ln)” value was 10.2 ± 0.13.
With “ACATGCAACCATTCGGGTACAGAAATAAATATATAC [XGTACX_site4174]” the “gcPBM binding intensity (ln)” value was 11.5 ± 1.1.
For “CTTTTTCGCATGAAAAGTACATGAAATATATTACAT [XGTACX_site8971]”, the “gcPBM binding intensity (ln)” value was 11.2 ± 0.77.
In the case of “TAAATTTTAATAAATACACACAAATTTTAATTCTAT [CACACA_site6039]”, the “gcPBM binding intensity (ln)” value is reported as 9.895 ± 0.035.
For “GGTTATAACGCACATGCACACGTAAATAAATATTAT [CACACA_site9277]”, the “gcPBM binding intensity (ln)” value was 10.4 ± 0.21.
With “AAGACAAAACAAAGAAGTACATATATATATATATAT [XGTACX_site4067]” the “gcPBM binding intensity (ln)” value was 11.3 ± 1.1.
